Data taken from PubChem BioAssay AID485290 (National Center for Advancing Translational Sciences (NCATS), 2010).
The whole screen tested about 350,000 compounds, of which about 990 (0.28%) were called active. This list was built around the results that the source calls inconclusive (neither active nor inactive); the mix of calls is not that of the screen. Calls come from the whole dose curve; as a rule, active = well fitted inhibition curve with a large enough effect; inconclusive = small, poorly fitted or top-dose-only effect; inactive = no such curve, though single readings can be large or run the other way. Potencies of inconclusive entries are doubtful fits and often do not repeat.

What follows are compounds tested against Tyrosyl-DNA phosphodiesterase 1 (Homo sapiens) (UniProt Q9NUW8) (assay: qHTS Assay for Inhibitors of Tyrosyl-DNA Phosphodiesterase (TDP1)). Details: recombinant TDP1, AlphaScreen DNA substrate cleavage; activity change, negative = inhibition: at 130 µM (top of the series) unless noted.
Sequence of UniProt Q9NUW8 (Q9NUW8 whole entry, looked up): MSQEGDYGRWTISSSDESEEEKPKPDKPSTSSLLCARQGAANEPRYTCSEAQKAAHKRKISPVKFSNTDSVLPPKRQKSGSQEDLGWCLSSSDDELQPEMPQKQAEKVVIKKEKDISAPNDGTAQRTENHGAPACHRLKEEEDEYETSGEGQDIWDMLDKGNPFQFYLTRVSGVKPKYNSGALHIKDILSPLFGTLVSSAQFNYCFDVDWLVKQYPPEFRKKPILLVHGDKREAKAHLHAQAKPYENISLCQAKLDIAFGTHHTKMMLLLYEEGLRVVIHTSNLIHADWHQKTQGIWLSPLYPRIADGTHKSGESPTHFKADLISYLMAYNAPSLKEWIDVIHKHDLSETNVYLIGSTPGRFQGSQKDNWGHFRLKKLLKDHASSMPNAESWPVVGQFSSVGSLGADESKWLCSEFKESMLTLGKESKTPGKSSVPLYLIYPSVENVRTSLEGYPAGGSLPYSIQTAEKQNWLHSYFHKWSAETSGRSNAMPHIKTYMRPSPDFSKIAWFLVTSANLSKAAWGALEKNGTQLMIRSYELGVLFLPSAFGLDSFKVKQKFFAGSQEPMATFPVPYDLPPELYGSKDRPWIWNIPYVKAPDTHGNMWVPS
In short: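 AlphaScreen read-out: signal falls as enzyme removes the 3' tyrosine-FITC from a 5'-biotinylated DNA oligo (15 nM, 5 min, RT). Enzyme was E. coli-made recombinant Tdp1 at 1 nM, exposed to compound for 15 min beforehand; beads 10 ug/ml, 10 min.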
% is set by controls: 0 for no effect and ±100 for the full control effect; potency is the fitted concentration of half-maximal effect; tags give direction and shape of the fitted curve.
Note: nearly all actives have a fitted effect of over 40% in size.

SMILES	Potency	activity change, negative = inhibition
Oc1cccc(O)c1O	inconclusive: 0.0865 µM [inhibitor, full curve, poor fit]	
O=C1CC(c2ccco2)CC(O)=C1C=Nc1cc(Cl)ccc1O (configuration not stated)	inconclusive: 12.6 µM [inhibitor, full curve]	
O=C(O)C1Cc2ccccc2CN1C(=O)COc1ccc(Cl)cc1 (configuration not stated)	inconclusive: 79.4 µM [inhibitor, single point]	
COc1cccc(C2CN(c3ccc(F)cc3F)N=C2c2cccs2)c1OC (configuration not stated)	inconclusive: 12.6 µM [inhibitor, partial curve, poor fit]	
Cc1ccccc1Cn1c(=N)n(CC(=O)c2ccc([N+](=O)[O-])cc2)c2ccccc21		inactive: 4.47%
COc1cccc(C(=O)NCC(c2ccc(N(C)C)cc2)N2CCOCC2)c1OC (configuration not stated)		inactive: 6.25%
Nc1nc(C2C(=O)CCCC2=O)cs1	inconclusive: 15.8 µM [inhibitor, single point]	
O=C(Nc1ccc2nc(C3CC3)n(Cc3ccccc3)c(=O)c2c1)C1CC1		inactive: 3.09%
Cc1cc(SCC(=O)Nc2ccc3[nH]c(=O)[nH]c3c2)nc2ccccc12	active: 44.7 µM	
Cc1cc(S(=O)(=O)NCc2ccccc2)ccc1OCC(=O)Nc1cccc([N+](=O)[O-])c1	inconclusive: 39.8 µM [inhibitor, single point]	
CCn1cc(C(=O)O)c(=O)c2cc(F)c(N3CCN(S(=O)(=O)c4ccc(NC(=O)OC)cc4)CC3)cc21	inconclusive: 89.1 µM [inhibitor, single point]	
S=C(NCc1ccco1)Nc1ccc(Cl)cn1		inactive: 1.35%
COc1ccc2c(c1)C(=O)N(CCc1ccc(S(=O)(=O)NC(=O)NC3CCCCC3)cc1)C(=O)C2(C)C	inactive	
Cc1cc[n+](-c2[nH]c(=O)sc2/C=N/N=C(\[O-])c2ccccc2)cc1C	active: 39.8 µM	
CCC(=O)NC(=S)Nc1ccc2oc(-c3ccc(OC)cc3)nc2c1	inconclusive: 14.1 µM [inhibitor, partial curve]	
O=C(N/N=C/c1cccs1)c1cc(-c2ccc(Cl)s2)[nH]n1	inconclusive: 89.1 µM [inhibitor, single point]	
O=C(c1ccc(N2C(=O)C3C4CC(C(Br)C4Br)C3C2=O)cc1)N1CCCCC1 (configuration not stated)	active: 31.6 µM	
COc1ccc(CN(CCN(C)C)c2ncccn2)cc1		inactive: 6.21% [at 56.1 µM]
O=C(c1cc(C(=O)c2ccco2)cc(C(=O)c2ccco2)c1)c1ccco1	inconclusive: 20 µM [inhibitor, full curve]	
O=C(Nc1nc2ccccc2[nH]1)C1CCCC1	inconclusive: 63.1 µM [inhibitor, single point]	
O=C(NNS(=O)(=O)c1ccccc1[N+](=O)[O-])c1ccccc1[N+](=O)[O-]	inconclusive: 1.41 µM [inhibitor, full curve, poor fit]	
CCOC(=O)CSc1nc2sc3c(c2c(=O)n1Cc1ccccc1)CCC(C(C)(C)C)C3 (configuration not stated)		inactive: 2.2% [at 12.3 µM]
Cc1cc(C)cc(NC(=O)c2cccnc2)c1	inconclusive: 28.2 µM [inhibitor, single point]	
Cc1ccc(NC(=O)c2oc3ccc(S(=O)(=O)N4CCCCC4)cc3c2C)cc1C		inactive: 5.2%

SMILES	Potency	activity change, negative = inhibition
COc1cccc(/C=N/NC(=O)c2nc(-c3ccccc3)cc(-c3ccccc3)n2)c1O	inconclusive: 0.708 µM [inhibitor, partial curve]	
CCCN(C(=O)c1ccc(S(=O)(=O)N2CCCC2)cc1)C1CCS(=O)(=O)C1 (configuration not stated)		inactive: 0.788%
Cc1cccc(Nc2nn3c(=O)c4ccccc4nc3s2)c1	inconclusive: 3.98 µM [inhibitor, full curve]	
COc1ccc(N2CCN(S(=O)(=O)c3ccc(-n4cnnn4)c(C)c3)CC2)cc1	inconclusive: 50.1 µM [inhibitor, partial curve]	
Cc1ccccc1NS(=O)(=O)c1ccc2[nH]cc(C(=O)NC(C)c3ccccc3)c(=O)c2c1 (configuration not stated)	inconclusive: 22.4 µM [inhibitor, single point]	
COC(=O)c1ccc(=O)c2nc3/c(=C/O)c(O)cc(=O)c3[nH]c12	inconclusive: 0.1 µM [inhibitor, full curve, poor fit]	
O=C(CSc1ccc2nnc(-c3ccccc3)n2n1)NCc1ccco1	inconclusive: 79.4 µM [inhibitor, single point]	
O=c1c(C(c2ccc(O)cc2)c2c(O)nc3n(c2=O)CCS3)c(O)nc2n1CCS2	inconclusive: 22.4 µM [inhibitor, full curve]	
Cc1noc(C)c1-c1cncnc1NC1CC1	active: 28.2 µM	
Cc1cc2nc(C)n(CCCNC(=O)Nc3cccc4ccccc34)c2cc1C	inconclusive: 89.1 µM [inhibitor, single point]	
O=C1C2C3C=CC(C3)C2C(=O)N1c1ncn[nH]1 (configuration not stated)	active: 15.8 µM	
O=C(O)c1cc(NCc2cc(O)ccc2O)ccc1O	inconclusive: 20 µM [inhibitor, full curve]	
Cc1ccc(NC(=O)CN2CCCC2c2cccs2)cc1S(=O)(=O)N1CCCCC1 (configuration not stated)		inactive: -0.687% [at 56.1 µM]
NCCCCN	inactive	
CCOC(=O)CSc1nc(C)c2cccc(C)c2n1	inconclusive: 89.1 µM [inhibitor, single point]	
N#Cc1c(NC(=O)COC(=O)c2ccc(O)cc2O)sc2c1CCC2	active: 22.4 µM	
Cc1cnc(CNc2ncncc2-c2ccccc2CN(C)C)cn1	active: 28.2 µM	
CCn1c(=O)cc(OCC(=O)NCc2ccco2)c2ccccc21	inconclusive: 17.8 µM [inhibitor, full curve, poor fit]	
O=C(CSc1nnc(NC(=O)c2ccccc2F)s1)Nc1ccccc1F		inactive: 2.74%
CC(=O)OCC1=C(C(=O)O)N2C(=O)C(NC(=O)c3ccc(COc4ccc(Cl)cc4)o3)C2SC1 (configuration not stated)	inconclusive: 100 µM [inhibitor, single point]	
O=C(c1cc([N+](=O)[O-])ccc1Cl)N1CCN(Cc2ccccc2)CC1		inactive: 6.74%
CCOC(=O)c1noc2ncnc(N3CCN(c4cccc(C(F)(F)F)c4)CC3)c12		inactive: 4.54%
Cc1ccc(C(=O)Nc2nc3nc(-c4ccccc4)cc(=O)n3[nH]2)cc1	active: 44.7 µM	
